Laboratory results taken from the supplement of paper PMC12217912.
The list shows a part of the results. The full chains were built here from the parent and the listed change. Inactive controls read about 0.05.

B1: TEV protease; numbered along this chain (parent)
chain: MGESLFKGPRDYNPISSSICHLTNESDGHTTSLYGIGFGPFIITNKHLFRRNNGTLVVQSLHGVFKVKDTTTLQQHLVDGRDMIIIRMPKDFPPFPQKLKFREPQREERICLVTTNFQTKSMSSMVSDTSCTFPSGDGIFWKHWIQTKDGQCGSPLVSTRDGFIVGIHSASNFTNTNNYFTSVPKNFMELLTNQEAQQWVSGWRLNADSVLWGGHKVFMVKPEEPFQPVKEATQL

Variants of: B1
Assay: raw area under fraction-flipped curve 0-4 h after induction (AUC4h, not background-subtracted), DNA-recorder readout of cleavage of the substrate (dimensionless); higher = more cleavage of the substrate by the protease variant
Settings: temperature: 34 °C; time window: 0-4 h after rhamnose induction
Procedure: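 In vivo DNA recorder in E. coli TOP10(DE3) ΔrhaA at 34 °C. Each TEVp single-site mutant (parent TEVp 0) is paired with a single-site variant of the 7-mer TEVs (canonical ENLYFQ|S). The substrate sits between flexible linkers in a Bxb1-sfGFP-TEVs-SsrA fusion, so cleavage stabilises Bxb1 and speeds flipping of a recombination array, read by NGS. The value is the raw area under the fraction-flipped curve over 0-4 h after rhamnose induction (AUC4h), with ≥20 reads per time point. It is not background-subtracted; inactive controls average about 0.047.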
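Note: Bxb1 expression induced with 0.2% (w/v) L-rhamnose at OD600 near 0.5, cultures sampled hourly, flipped fraction per protease–substrate barcode pair counted by paired-end Illumina sequencing.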

Row | Variant | area with substrate ENLYFQC | area with substrate ENLYFQD | area with substrate ENLYFQG | area with substrate ENLYFQH | area with substrate ENLYFQI | area with substrate ENLYFQM | area with substrate ENLYFQN | area with substrate ENLYFQP | area with substrate ENLYFQR | area with substrate ENLYFQS | area with substrate ENLYFQT | area with substrate ENLYFQV | area with substrate ENLYFQY | area with substrate ENLYFQK | area with substrate ENLYFQL | area with substrate ENLYFQF | area with substrate ENLYFQE | area with substrate ENLYFQW | area with substrate ENLYFQQ
1 | G166C | 0.0391 | 0.0495 | 0.0955 | 0.0497 | 0.0561 | 0.0377 | 0.0507 | 0.0554 | 0.0358 | 0.0487 | 0.0307 | 0.0485 | 0.0476 | – | – | – | – | – | –
2 | D137P | 0.114 | 0.0864 | – | – | 0.0634 | – | – | 0.0641 | 0.0585 | 0.112 | 0.0975 | – | – | 0.0667 | – | – | – | – | –
3 | F101W | 0.101 | 0.0576 | 0.111 | 0.0705 | 0.0673 | 0.0469 | 0.0899 | – | 0.0574 | 0.105 | 0.0654 | – | 0.0603 | 0.0746 | 0.0639 | – | – | – | –
4 | P96R | 0.13 | – | – | – | 0.0409 | 0.0862 | – | – | – | 0.103 | 0.0821 | – | – | 0.0724 | – | 0.0643 | – | – | –
5 | P96Q | 0.164 | 0.0771 | – | – | – | – | 0.102 | – | 0.0757 | 0.107 | – | – | – | – | 0.0498 | – | 0.0743 | 0.0702 | –
6 | N177Y | 0.085 | – | – | 0.0786 | 0.0497 | 0.0575 | 0.0536 | – | 0.0637 | 0.0752 | 0.0599 | – | – | 0.055 | – | – | – | – | –
7 | P184Y | 0.0786 | – | – | 0.079 | – | 0.0451 | 0.065 | – | 0.0466 | 0.0629 | 0.0509 | – | 0.0211 | – | 0.0546 | – | – | – | –
8 | W199G | 0.0564 | 0.0704 | 0.0611 | – | – | 0.0583 | 0.0533 | 0.0536 | 0.0703 | 0.0621 | 0.0349 | 0.0572 | – | – | 0.055 | 0.0697 | 0.0662 | 0.0528 | –
9 | I145R | 0.0649 | 0.0562 | – | – | – | – | 0.055 | 0.0547 | 0.0389 | 0.0592 | – | 0.0613 | 0.0673 | – | 0.0561 | – | 0.0586 | – | –
10 | T115M | 0.112 | 0.0793 | 0.0977 | 0.0822 | 0.0526 | 0.0905 | 0.0693 | – | 0.0549 | 0.105 | – | 0.037 | – | 0.0674 | 0.0435 | 0.0904 | 0.0287 | 0.0604 | –
11 | S127T | 0.127 | 0.0834 | 0.107 | 0.0671 | 0.069 | 0.0459 | 0.0857 | – | 0.0592 | 0.1 | 0.097 | 0.0552 | 0.102 | 0.0583 | 0.0614 | 0.0465 | – | 0.0636 | –
12 | R102Y | 0.0344 | – | 0.0458 | – | 0.0362 | – | – | – | 0.0488 | 0.049 | – | 0.0485 | – | – | – | – | – | – | –
13 | A207I | 0.0846 | 0.0539 | 0.0872 | – | 0.0556 | 0.0901 | – | 0.0566 | – | 0.0951 | 0.0662 | – | 0.0864 | – | 0.0677 | 0.0678 | – | – | –
14 | A207C | 0.108 | 0.0841 | 0.0849 | 0.08 | 0.0515 | – | 0.0859 | 0.0566 | 0.0598 | 0.102 | 0.0674 | – | 0.0874 | 0.0685 | 0.0499 | – | – | 0.069 | 0.0749
15 | T159C | 0.16 | – | 0.105 | – | – | – | 0.0699 | – | – | 0.11 | – | 0.0608 | – | – | – | 0.0907 | – | 0.0745 | –
16 | P104K | 0.0403 | – | – | – | – | – | 0.0464 | 0.0759 | 0.0403 | 0.0564 | – | – | 0.0404 | – | – | – | – | 0.0423 | –
17 | P104A | 0.0941 | – | – | – | – | – | 0.0879 | 0.0702 | – | 0.101 | 0.0573 | 0.065 | 0.0894 | – | 0.0483 | – | 0.0628 | 0.0568 | 0.0876
18 | L191C | 0.0949 | 0.0658 | – | 0.0697 | 0.0644 | 0.0931 | 0.0701 | 0.0511 | 0.0597 | 0.0854 | 0.046 | 0.0499 | – | – | 0.0649 | – | 0.0674 | – | –
19 | L112T | 0.09 | 0.0681 | 0.0646 | – | 0.057 | 0.0812 | 0.0498 | – | 0.0525 | 0.0737 | 0.0663 | – | 0.0525 | 0.0721 | 0.0754 | – | 0.0679 | 0.0613 | 0.075
20 | L112V | 0.095 | – | 0.0233 | 0.0884 | 0.0538 | 0.0735 | – | – | 0.0677 | 0.0888 | 0.061 | – | – | 0.0653 | – | 0.0564 | – | 0.0778 | 0.0426
21 | W144G | 0.0846 | 0.0505 | – | 0.0584 | 0.0518 | 0.0473 | – | – | 0.0571 | 0.0822 | 0.0794 | 0.0572 | 0.0962 | 0.0772 | 0.0565 | – | – | 0.0818 | 0.0654
22 | W144D | 0.0776 | 0.0621 | – | – | 0.0347 | 0.078 | 0.0735 | – | 0.055 | 0.0815 | – | 0.0617 | – | – | 0.0586 | – | 0.0396 | 0.0585 | –
23 | K120A | 0.0975 | 0.0596 | 0.104 | – | 0.0394 | 0.095 | 0.0826 | 0.055 | 0.0606 | 0.107 | – | 0.0704 | – | 0.0675 | – | – | – | 0.0703 | –
24 | K120E | 0.0903 | 0.062 | – | 0.0705 | 0.059 | 0.0662 | 0.0784 | 0.0546 | 0.0593 | 0.103 | 0.0775 | 0.0526 | 0.0532 | 0.0718 | 0.0643 | 0.093 | 0.0492 | 0.0658 | –
25 | I86N | 0.0285 | – | – | – | – | 0.0526 | – | – | 0.0486 | 0.0516 | – | – | – | 0.0588 | – | – | 0.0502 | – | –
26 | E189K | 0.118 | 0.0754 | – | 0.0722 | – | – | 0.0712 | – | – | 0.0901 | – | – | – | 0.0598 | – | – | – | 0.06 | –
27 | G136K | 0.126 | 0.0854 | 0.0939 | – | 0.0516 | 0.0756 | 0.0781 | 0.0587 | 0.0589 | 0.0999 | 0.0559 | – | 0.076 | – | – | – | – | 0.0704 | –
28 | G150N | 0.0634 | – | 0.0702 | 0.0496 | 0.0567 | 0.0555 | 0.0342 | – | 0.0503 | 0.0611 | 0.0599 | 0.0567 | 0.0604 | 0.0523 | 0.0531 | 0.0516 | – | 0.0602 | –
29 | I167D | 0.0474 | 0.0296 | 0.0576 | – | – | 0.0601 | – | 0.107 | 0.0535 | 0.05 | 0.0464 | – | – | 0.0421 | 0.0435 | – | – | 0.0535 | –
30 | V200Y | 0.0781 | 0.0698 | – | 0.0593 | 0.0643 | 0.0605 | – | 0.085 | 0.042 | 0.0661 | 0.0629 | – | – | – | 0.0507 | – | – | 0.0619 | –
